# Hit rate of the full screen: of about 320,000 compounds, about 200 (0.062%) were called active. This list was built around the results that the source calls inconclusive (neither active nor inactive); the mix of calls is not that of the screen. The call rests on the fitted dose curve; in most records, active means well fitted activation curve with a large enough effect; inconclusive means small, poorly fitted or top-dose-only effect; inactive means no such curve, though single readings can be large or run the other way. Potencies of inconclusive entries are left out as doubtful fits.
# Assay: qHTS assay for re-activators of p53 using a Luc reporter; further: nearly all actives have a fitted effect of over 45% in size
# Settings: H1299 p53-A138V BP100-luciferase reporter, luminescence, 24 h; series mostly up to 92.2 µM
# Outline: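 H1299 (p53-null), stable ts p53-A138V + BP100-Luc; 1000 cells/well, Opti-MEM/10% FBS; cpd 4 pt, 1:5; 24 h, 37 deg C, 5% CO2; detection reagent 10 min RT; luminescence.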
# Potency means the concentration at half of the fitted maximal effect; tags describe the fitted curve by direction and shape.
row,Compound,Potency
1,CN1CCN(C(CNS(=O)(=O)c2ccc([N+](=O)[O-])cc2)c2ccc(F)cc2)CC1 (centres undefined),inactive
2,O=Cc1coc2c(ccc3ccccc32)c1=O,"inconclusive [activator, full curve, poor fit]"
3,CCOC(=O)c1cnc(SCc2ccc(C)cc2)nc1N,"inconclusive [activator, full curve, poor fit]"
4,COC(=O)[C@]1(C)N[C@H](CN(C)S(=O)(=O)c2ccc(OC(F)(F)F)cc2)[C@@H]2C(=O)N(C)C(=O)[C@@H]21,inactive
5,CC(=O)Nc1ccc(NC(=O)Cn2cnc(S(=O)(=O)N3CCOCC3)c2)cc1,inactive
6,O=C(/C=C/c1cccs1)Nc1cccc(NC(=O)/C=C/c2cccs2)n1,"inconclusive [activator, full curve, poor fit]"
7,COc1ccc(O)c(-c2cc(-c3ccc(F)cc3)n[nH]2)c1,"inconclusive [activator, full curve, poor fit]"
8,CCOc1ccc(NC(=O)Nc2ccon2)cc1,"inconclusive [activator, partial curve, poor fit]"
9,Cc1ccc(S(=O)(=O)N2CCC(C(=O)NC3CC(C)(C)NC(C)(C)C3)CC2)cc1C,"inconclusive [activator, single point]"
10,NC(=S)n1[nH]c(-c2ccc([N+](=O)[O-])cc2)c(N=Nc2ccccc2[N+](=O)[O-])c1=O,"inconclusive [activator, single point]"
11,Cc1ccc(-c2cc3c(nn2)-c2ccccc2C3=O)cc1,inactive
12,COc1ccc(Cl)cc1-n1c(C)cc(C=O)c1C,inactive
13,NC(=O)c1ccccc1N/C=C/C(=O)c1ccc(F)cc1,"inconclusive [activator, full curve, poor fit]"
14,O=C(c1ccc2c(c1)C(=O)N(CCCO)C2=O)c1ccc2c(c1)C(=O)N(CCCO)C2=O,inactive
15,CCOc1ccc(NC(=O)CSc2ccccc2N)cc1,inactive
16,O=C(Nc1ccc2c(c1)OCCO2)c1cccnc1,"inconclusive [activator, full curve, poor fit]"
17,Cc1nnc(NCCc2ccccc2)c2ccccc12,"inconclusive [activator, partial curve, poor fit]"
18,CCN(CC)c1ccc(/C=C/c2ccc3ccc(OC)cc3[n+]2CC)cc1,inactive
19,CCN(CCn1cccn1)C(=O)c1cccc(OC2CCN(S(C)(=O)=O)CC2)c1,"inconclusive [activator, single point]"
20,CCN(CC)CCN(C(=O)c1ccc2c(c1)CCCC2)c1nc2cc(OC)c(OC)cc2s1,"inconclusive [activator, single point]"
21,O=C(Nc1ccccc1)C1=C[C@@H](C2CC2)C[C@@H](OCCCCO)O1,inactive
22,N#Cc1nc(COc2ccccc2)oc1N1CCCCC1,"inconclusive [activator, full curve, poor fit]"

row,Compound,Potency
1,O=C(Nc1cccc2nsnc12)c1ccc2c(c1)OCCO2,"inconclusive [activator, partial curve, poor fit]"
2,COc1ccc(/C=N/NC(=O)c2[nH]c3ccc(Cl)cc3c2-c2ccccc2)c(C(=O)O)c1OC,inactive
3,NC(=NCc1ccccc1)c1cccc([N+](=O)[O-])c1,"inconclusive [activator, partial curve, poor fit]"
4,CCCNc1cc(C)oc(=O)c1C(=O)CC,inactive
5,CC(C)NC(=O)/C(C#N)=C/c1ccc2c(c1)OCCO2,"inconclusive [activator, partial curve, poor fit]"
6,CN1CCN(c2ccc(NC(=O)c3cccc(S(=O)(=O)N4CCCC4)c3)cc2)CC1,"inconclusive [activator, partial curve, poor fit]"
7,Cc1ccc(C(=O)NC(C)C2CC3CCC2C3)c(C)c1 (centres undefined),"inconclusive [activator, partial curve, poor fit]"
8,Cc1cnn(-c2cc(N/N=C/c3ccccc3Cl)ncn2)c1,inactive
9,COc1ccc(NC(=S)NC(=O)/C=C/c2ccco2)cc1,"inconclusive [activator, single point]"
10,CCOc1ccc2[nH]cc(C(=O)NCc3ccccc3)c(=O)c2c1,"inconclusive [activator, single point]"
11,Cc1cccc2nc(CSc3nc4ccccc4o3)cn12,"inconclusive [activator, partial curve, poor fit]"
12,Cc1c(Cl)cccc1NC(=O)CN(C1CCCCC1)S(C)(=O)=O,inactive
13,O=C(OCC(=O)N1CCOCC1)c1ccc(F)cc1Cl,"inconclusive [activator, single point]"
14,Brc1cccc(-c2n[nH]c(-c3ccccc3)n2)c1,"inconclusive [activator, partial curve, poor fit]"
15,CN(C)P(=O)(Nc1cccc2ccccc12)Nc1cccc2ccccc12,inactive
16,CC(=O)Nc1ccc(S(=O)(=O)N2CCN(c3nc(NC4CCCC4)c4ccccc4n3)CC2)cc1,inactive
17,c1csc(-c2nc(-c3ccncc3)no2)c1,"inconclusive [activator, partial curve, poor fit]"
18,C/C(=N\OCC(=O)NCC(F)(F)F)c1cc2ccccc2o1,"inconclusive [activator, partial curve, poor fit]"
19,O=C(N/N=C/c1ccccc1[N+](=O)[O-])c1ccncc1,"inconclusive [activator, full curve, poor fit]"
20,COc1ccc(C(CNC(=O)c2cccc(NC(=O)c3cccs3)c2)N2CCCC2)cc1 (centres undefined),"inconclusive [activator, single point]"
21,CCOc1ccc(NC(=O)CSc2nncc(=O)n2N)cc1,"inconclusive [activator, single point]"
22,O=C(Nc1ccccc1)Nc1ccc(-n2ccc(C(F)(F)F)n2)cc1,"inconclusive [activator, partial curve, poor fit]"

# — PubChem BioAssay AID504706 (National Center for Advancing Translational Sciences (NCATS), 2011)
